# Data as given in article PMC12136788.
# Some of the results follow.
# T1: UNK ZnF1-3 (human, UniProt Q9C0B0 31-174)
# T1 sequence: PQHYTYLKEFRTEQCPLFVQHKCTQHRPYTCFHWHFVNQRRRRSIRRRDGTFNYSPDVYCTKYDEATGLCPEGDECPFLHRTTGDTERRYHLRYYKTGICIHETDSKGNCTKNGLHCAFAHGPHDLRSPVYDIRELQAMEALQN
# B1: chr6:38652254:38652255:-_ENSG00000124767_ENST00000373365|hu_hu|hu_hu_hu_mus_False|58_78 (ssRNA)
# RNA: GGGAGUUCUACAGUCCGACGAUCCGAGAACUUCAUAGCAGGGAAGUCAAGCUUCUGGAUUAGCGUCAGUCCAAGAACUCUAGUAUAAAAAUCCAGGGACUUCUUAGGAUCCUUAAUUCUUAGCAUCGUUUGCUGCAGUAGAAACAACAGAGGAUUGAGCAUCA
# B2: chr1:130270616:130270617:-_ENSMUSG00000026356_ENSMUST00000027602|mus_mus|motif|central (ssRNA)
# RNA: GGGAGUUCUACAGUCCGACGAUCGUAAUGAUAAUUAAAGGCCAUUUCAAUAUCCAAACCAACAAAUUCAGUCAGAUGUCGGUGGGUAUUGGAGUCUUCAGCUCUGAAAACUGGUCCAAUGCAGAAAACCUUCUCAAAAUCAGCCAACAGAGGAUUGAGCAUCA
# B3: chrX:69798090:69798091:-_ENSMUSG00000031343_ENSMUST00000055966|mus_mus|mus_mus_mus_hu_False|38_58 (ssRNA)
# RNA: GGGAGUUCUACAGUCCGACGAUCAAGUCCCCGGGUUCUUGUCGUCUUGAUUCCCCUUGACCAGUGGUUCCAGGGAGAAUACUAAUCAGGAAAAGAAGUACAACUCUGGUCAUGUAACAGUGACUUGUUUGUGUGAUUAUCAUCCAACAGAGGAUUGAGCAUCA
# B4: 111050710_111050830_356_CDS_ENSMUSG00000021700_ENSMUST00000167824|mouse|control|control (ssRNA)
# RNA: GGGAGUUCUACAGUCCGACGAUCCUCAUUUUUGAAUACAGUUUUUACUUUGAAAUCGAUGCCAACCGUGCUGACGAAUGCAGAUGUAAAGGAAUCGUCGGCAUAACGGAACAGGAAAGAUGUUUUGCCCACGCUGCUAUUGCCCAACAGAGGAUUGAGCAUCA
# B5: chr12:103221452:103221453:+_ENSMUSG00000041781_ENSMUST00000047357|mus_hu|FALSE|FALSE (ssRNA)
# RNA: GGGAGUUCUACAGUCCGACGAUCAUAAACAGGAAUGGUUGCAUAGAUAGCACAGUUCAGACCCAACUUUCCGACAGCAUACGGGAGGGCACCAAGGUGGAGAGGAUCAGGGUGAGACAACAGCACUGCAUCAAUCUGGUGAACCAACAGAGGAUUGAGCAUCA
# B6: 61985779_61985899_2350_3pUTR_ENSMUSG00000021929_ENSMUST00000022496|mouse|control|control (ssRNA)
# RNA: GGGAGUUCUACAGUCCGACGAUCAAAAAAUUAGGUAUAAUGGCGAAAGCAUUACCAUUGAUAUCUAAAGCUCUUCCUCCAACCCUGGCUUCUGAGGCAGAUAAUAAACACAUCAAUUAAUGGUAGGUGAAGUACAGUUUUAAACAACAGAGGAUUGAGCAUCA
# B7: chr17:2570287:2570288:+_ENSG00000007168_ENST00000397195|hu_hu|motif|central (ssRNA)
# RNA: GGGAGUUCUACAGUCCGACGAUCCUGACCAAGAGGUCCACCUGACGUAAAUUCUUCUUUUGCUUCAUUUAGCUUUGAUUCGGAUUCCAUAACCUUCUUUUGUAAUCUAAUAACAGAUGUCCAUUUUUUUUCCAAAAGACCAGCCAACAGAGGAUUGAGCAUCA
# B8: chr2:216981417:216981418:+_ENSG00000079246_ENST00000392132|hu_hu|FALSE|FALSE (ssRNA)
# RNA: GGGAGUUCUACAGUCCGACGAUCCUGAUACUGAUCCCCACCAGAAAGGGGAUUGUCAGUGCCAUCUGUACCAAACAGGACUAAAGCAAUCUCAUCCUUGUUCUCAGCAAACACCUGUCGCUGUACAAACAUGGUUAUCACCUUCAACAGAGGAUUGAGCAUCA
# B9: chr12:48362563:48362564:+_ENSG00000134291_ENST00000256686|hu_hu|hu_hu_hu_mus_False|1_78 (ssRNA)
# RNA: GGGAGUUCUACAGUCCGACGAUCUCCGUCAAGCCCUUCGAUAGACCCUUGCGGGGGUGGUAAAAACCACUUUGUAUGGGGAAGGAAAAGAAACGCCAAAAACUUUCCAAAAAGCGGGGGUGGGGUGAGGCGGGAGGUUGGGAACAACAGAGGAUUGAGCAUCA
# B10: chr13:110848956:110848957:-_ENSMUSG00000021700_ENSMUST00000167824|mus_hu|FALSE|FALSE (ssRNA)
# RNA: GGGAGUUCUACAGUCCGACGAUCAGGUACCAACACCAAAGCUCUUGGAAGAAUCGAUUUGGAACAGUUCAGGUUUAUUCCUAAGGGUAUCUAGAGGAGUGAAAGUGGUCAGGUAAUGAGUAGCAAAGGAAAAUAAAUUCAUACCAACAGAGGAUUGAGCAUCA
# B11: chr2:202488911:202488912:-_ENSG00000155755_ENST00000286196|hu_mus|hu_hu_hu_mus_False|18_28 (ssRNA)
# RNA: GGGAGUUCUACAGUCCGACGAUCAUUGAAACAUUUUUCAUAAUCUCCAGUAGCAUUUCAGCAUUAUGUAACAAAAGCUCAAUUGUAAAUACAUGUAUCUUAUAAAAAUAAAAAUACAUUUAAAAACGGGGAGCGCAGGCGCCACAACAGAGGAUUGAGCAUCA
# B12: chr21:38862523:38862524:+_ENSG00000157540_ENST00000338785|hu_mus|FALSE|FALSE (ssRNA)
# RNA: GGGAGUUCUACAGUCCGACGAUCUCGGAAGUUGGUGUUUCUCAACAAAUCAUAGAGAUUAUAGGACAGCAUUUCAAACACUAAACAGAGAUGGUUUCGAAACAUAAAGUGGCGUUUCAAAUGCACUAUGUAGUACUUCAUUUCCAACAGAGGAUUGAGCAUCA
# B13: chr19:16212804:16212805:+_ENSG00000167460_ENST00000300933|hu_mus|hu_hu_hu_mus_False|1_48 (ssRNA)
# RNA: GGGAGUUCUACAGUCCGACGAUCAACAAUUCUGGAGUGAAGGAAAGAUGUAACAUGGAACAGCAUUAAAGCUCAGUCAGAAGGCACGUGGGUAAUUAUGAUCACCCCAGCAUUCUCGCUUGGAAUGCUUAAAGACAGAUGUUUCAACAGAGGAUUGAGCAUCA
# B14: chr16:8843179:8843180:+_ENSMUSG00000022507_ENSMUST00000023150|mus_mus|FALSE|FALSE (ssRNA)
# RNA: GGGAGUUCUACAGUCCGACGAUCUGGGGGAGCUCUAGAGUUUCGUGGUGGAGGAACCUUUCCACACAGGAAGCUGAUCAAAUCUUCUCUACGAAUAGUUCUUCUGCGCUUUUUUACCCAGGCCAGCACAUCCUUAUUGCGUCGCAACAGAGGAUUGAGCAUCA
# B15: chr3:152055631:152055632:+_ENSMUSG00000025437_ENSMUST00000117492|mus_hu|motif|central (ssRNA)
# RNA: GGGAGUUCUACAGUCCGACGAUCAGAGUCAGGGUGAUUUAGGACAAUGAAAAAGUUUUCAAAGCAAAAGUAUUUACAACACGGCAAAGGAUACUAUGGAUCUGCAUGUAGUGUAAAGAUUAAAGAUAACCUACUGAUUUCACACAACAGAGGAUUGAGCAUCA
# B16: chr16:18284709:18284710:-_ENSMUSG00000022718_ENSMUST00000009321|mus_mus|FALSE|FALSE (ssRNA)
# RNA: GGGAGUUCUACAGUCCGACGAUCAACCACUGCCUCAAUUAUUGGAAAUCACAAUGCACUCAGCUUAAAAGAUUGACGUCUAAGUGAGUCUAUCUUCAUGCCAAAGUGGCACCUUUCUUCUUCCACCUGUGGCGCCCGCGACCUCAACAGAGGAUUGAGCAUCA
# B17: 187351112_187360007_290_CDS_ENSG00000065548_ENST00000337859|human|control|control (ssRNA)
# RNA: GGGAGUUCUACAGUCCGACGAUCCUUCUGUUGCUUUGCUCCUUUCUUAUUCUUCAAACCGAAAGUUUUGUCUUCGAUAAUCUUCUCCUUCUUUUUUUGCUCCGCCUUUUUGCUGCCCCCGGCCUGAGCCUGUUUCUUGGGGGGCAACAGAGGAUUGAGCAUCA
# B18: chr4:101300647:101300648:+_ENSMUSG00000028528_ENSMUST00000094953|mus_mus|FALSE|FALSE (ssRNA)
# RNA: GGGAGUUCUACAGUCCGACGAUCGGUGCCAUGUGAUGAGCCUGUCGGGCUGGUGGCAGCGGAUUUGCUCCCCAUUCCAAAACCUCCUGGUUUGGUGUGCCAGUCCCAACCUCCAGCAAUGUCGGGCUGGAUGUUCACAGCAGGCAACAGAGGAUUGAGCAUCA
# B19: chr13:49821539:49821540:+_ENSMUSG00000037851_ENSMUST00000165316|mus_hu|FALSE|FALSE (ssRNA)
# RNA: GGGAGUUCUACAGUCCGACGAUCUUCCCGAGCCAUUCCUUCAUCUACCAUUGACUGGUCAGGAGUGACAUCUAAGAGGACCAAAGCCUGAGCAUCUGAGUGUGCUUCAAAUUGCGCAGUCCCACCUGUGGCCUGAUCAAAGGUCAACAGAGGAUUGAGCAUCA
# B20: 61749448_61749568_4601_CDS_ENSG00000171316_ENST00000423902|human|control|control (ssRNA)
# RNA: GGGAGUUCUACAGUCCGACGAUCGAGGUCAUUUUGGGGAUUCCAGUCUGAAUCAAAGAUGAUGCAGGUAUCAGCAGCAGUGAGGUUAAUGCCUAAACCUCCUGCCCUUGUACACAGGAGGAAAACAAACCUAUCAGAAUCAGGCAACAGAGGAUUGAGCAUCA
# B21: chr1:225611761:225611762:-_ENSG00000143815_ENST00000272163|hu_mus|hu_hu_hu_mus_True|1_98 (ssRNA)
# RNA: GGGAGUUCUACAGUCCGACGAUCCCAGGCCAUCGGCCUCUUACCACUUCACCCUCAACAAACUUCCUACUUGGCAUUUUCUAAAAUUAGUCUGGCCGCGCUCCGGCGGGAACUCCAGCCACUCCAGGACAGUCACCCGCACAGCAACAGAGGAUUGAGCAUCA
# B22: chr2:24917620:24917621:+_ENSMUSG00000006476_ENSMUST00000102931|mus_hu|motif|central (ssRNA)
# RNA: GGGAGUUCUACAGUCCGACGAUCCAAGAAAUGCUGCUUCCCUUUGAAUUGUUUCGGGGGUGUAGAAAUUGCACUUAUUUCGGUGAACCCCAUGGAGGGAUGCCCACAGCUGAGCCUCCAGGCGAGGCAUGGCAGGUCAGUGCCCAACAGAGGAUUGAGCAUCA
# Target: T1, UNK ZnF1-3
# Assay: nsRBNS (natural sequence RNA bind-n-seq); RBNS binding buffer (assumed for nsRBNS): 25 mM Tris pH 7.5, 150 mM KCl, 3 mM MgCl2, 0.01% Triton X-100, 500 ug/ml BSA, 20 U/ml SUPERase-In, 4 C; UNK is unkempt and MSI1 is Musashi-1; names of the RNAs are library labels; protein concentration not given here; high values mean tight binding
row,Binder,binding signal [enrichment R]
1,B1,1.14
2,B2,1.18
3,B3,0.697
4,B4,0.91
5,B5,1.88
6,B6,1.14
7,B7,1.03
8,B8,0.791
9,B9,1.91
10,B10,2.07
11,B11,1.41
12,B12,0.866
13,B13,1.28
14,B14,0.785
15,B15,1.02
16,B16,1.11
17,B17,0.432
18,B18,0.809
19,B19,0.679
20,B20,1.23
21,B21,1.2
22,B22,0.889
